Results: the supplement of paper PMC11876631
± gives the standard deviation of the averaged measurements. Laboratory Escherichia coli strains with one amino-acid change in an essential protein, pooled on minimal glucose agar with carbenicillin or gentamicin at twice the control MIC (plus kanamycin and chloramphenicol for the plasmids), 48 h. Fold change of barcode share against drug-free plates; higher = less susceptible. Active = above 20 in both replicates (the paper's putatively resistant). '<' = one read or none on drug, '>' = one read or none on a drug-free plate. Shares are relative, so most strains fall below 1 when a few take over. Listed are strains with at least 15 reads on both drug-free plates, and hits; most hits rest on fewer reference reads. Replicate rank correlation about 0.5. Edits are read from barcodes.

Biological target: Escherichia coli (laboratory strain)
Test: barcode share on antibiotic plates over drug-free plates; higher = less susceptible
Description: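 A pool of E. coli strains, each edited to carry one amino-acid change in an essential protein, was grown for 48 h on minimal glucose agar with or without antibiotic; strain barcodes were sequenced; mean of two replicates.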

[1] = antibiotic: carbenicillin, 2× MIC (3.1 µg/mL)
[2] = antibiotic: gentamicin, 2× MIC (MIC 0.45 µg/mL)

Row | Protein | fold change of barcode share [1] | fold change of barcode share [2]
1 | dnaA I26Q (protein) MSLSLWQQCLARLQDELPATEFSMWQRPLQAELSDNTLALYAPNRFVLDWVRDKYLNNINGLLTSFCGADAPQLRFEVGTKPVTQTPQAAVTSNVAAPAQVAQTQPQRAAPSTRSGWDNVPAPAEPTYRSNVNVKHTFDNFVEGKSNQLARAAARQVADNPGGAYNPLFLYGGTGLGKTHLLHAVGNGIMARKPNAKVVYMHSERFVQDMVKALQNNAIEEFKRYYRSVDALLIDDIQFFANKERSQEEFFHTFNALLEGNQQIILTSDRYPKEINGVEDRLKSRFGWGLTVAIEPPELETRVAILMKKADENDIRLPGEVAFFIAKRLRSNVRELEGALNRVIANANFTGRAITIDFVREALRDLLALQEKLVTIDNIQKTVAEYYKIKVADLLSKRRSRSVARPRQMAMALAKELTNHSLPEIGDAFGGRDHTTVLHACRKIEQLREESHDIKEDFSNLIRTLSS | 0.219 ± 0.11 | 0.0398 ± 0.05
2 | dnaA I26D (protein) MSLSLWQQCLARLQDELPATEFSMWDRPLQAELSDNTLALYAPNRFVLDWVRDKYLNNINGLLTSFCGADAPQLRFEVGTKPVTQTPQAAVTSNVAAPAQVAQTQPQRAAPSTRSGWDNVPAPAEPTYRSNVNVKHTFDNFVEGKSNQLARAAARQVADNPGGAYNPLFLYGGTGLGKTHLLHAVGNGIMARKPNAKVVYMHSERFVQDMVKALQNNAIEEFKRYYRSVDALLIDDIQFFANKERSQEEFFHTFNALLEGNQQIILTSDRYPKEINGVEDRLKSRFGWGLTVAIEPPELETRVAILMKKADENDIRLPGEVAFFIAKRLRSNVRELEGALNRVIANANFTGRAITIDFVREALRDLLALQEKLVTIDNIQKTVAEYYKIKVADLLSKRRSRSVARPRQMAMALAKELTNHSLPEIGDAFGGRDHTTVLHACRKIEQLREESHDIKEDFSNLIRTLSS | 0.274 ± 0.12 | 0.00985 ± 0.0047
3 | dnaA I26P (protein) MSLSLWQQCLARLQDELPATEFSMWPRPLQAELSDNTLALYAPNRFVLDWVRDKYLNNINGLLTSFCGADAPQLRFEVGTKPVTQTPQAAVTSNVAAPAQVAQTQPQRAAPSTRSGWDNVPAPAEPTYRSNVNVKHTFDNFVEGKSNQLARAAARQVADNPGGAYNPLFLYGGTGLGKTHLLHAVGNGIMARKPNAKVVYMHSERFVQDMVKALQNNAIEEFKRYYRSVDALLIDDIQFFANKERSQEEFFHTFNALLEGNQQIILTSDRYPKEINGVEDRLKSRFGWGLTVAIEPPELETRVAILMKKADENDIRLPGEVAFFIAKRLRSNVRELEGALNRVIANANFTGRAITIDFVREALRDLLALQEKLVTIDNIQKTVAEYYKIKVADLLSKRRSRSVARPRQMAMALAKELTNHSLPEIGDAFGGRDHTTVLHACRKIEQLREESHDIKEDFSNLIRTLSS | 0.604 ± 0.25 | 0.0128 ± 0.0087
4 | dnaA I59D (protein) MSLSLWQQCLARLQDELPATEFSMWIRPLQAELSDNTLALYAPNRFVLDWVRDKYLNNDNGLLTSFCGADAPQLRFEVGTKPVTQTPQAAVTSNVAAPAQVAQTQPQRAAPSTRSGWDNVPAPAEPTYRSNVNVKHTFDNFVEGKSNQLARAAARQVADNPGGAYNPLFLYGGTGLGKTHLLHAVGNGIMARKPNAKVVYMHSERFVQDMVKALQNNAIEEFKRYYRSVDALLIDDIQFFANKERSQEEFFHTFNALLEGNQQIILTSDRYPKEINGVEDRLKSRFGWGLTVAIEPPELETRVAILMKKADENDIRLPGEVAFFIAKRLRSNVRELEGALNRVIANANFTGRAITIDFVREALRDLLALQEKLVTIDNIQKTVAEYYKIKVADLLSKRRSRSVARPRQMAMALAKELTNHSLPEIGDAFGGRDHTTVLHACRKIEQLREESHDIKEDFSNLIRTLSS | 0.337 ± 0.017 | < 0.00922
5 | dnaA I59A (protein) MSLSLWQQCLARLQDELPATEFSMWIRPLQAELSDNTLALYAPNRFVLDWVRDKYLNNANGLLTSFCGADAPQLRFEVGTKPVTQTPQAAVTSNVAAPAQVAQTQPQRAAPSTRSGWDNVPAPAEPTYRSNVNVKHTFDNFVEGKSNQLARAAARQVADNPGGAYNPLFLYGGTGLGKTHLLHAVGNGIMARKPNAKVVYMHSERFVQDMVKALQNNAIEEFKRYYRSVDALLIDDIQFFANKERSQEEFFHTFNALLEGNQQIILTSDRYPKEINGVEDRLKSRFGWGLTVAIEPPELETRVAILMKKADENDIRLPGEVAFFIAKRLRSNVRELEGALNRVIANANFTGRAITIDFVREALRDLLALQEKLVTIDNIQKTVAEYYKIKVADLLSKRRSRSVARPRQMAMALAKELTNHSLPEIGDAFGGRDHTTVLHACRKIEQLREESHDIKEDFSNLIRTLSS | 0.349 ± 0.2 | < 0.0115
6 | dnaA I59W (protein) MSLSLWQQCLARLQDELPATEFSMWIRPLQAELSDNTLALYAPNRFVLDWVRDKYLNNWNGLLTSFCGADAPQLRFEVGTKPVTQTPQAAVTSNVAAPAQVAQTQPQRAAPSTRSGWDNVPAPAEPTYRSNVNVKHTFDNFVEGKSNQLARAAARQVADNPGGAYNPLFLYGGTGLGKTHLLHAVGNGIMARKPNAKVVYMHSERFVQDMVKALQNNAIEEFKRYYRSVDALLIDDIQFFANKERSQEEFFHTFNALLEGNQQIILTSDRYPKEINGVEDRLKSRFGWGLTVAIEPPELETRVAILMKKADENDIRLPGEVAFFIAKRLRSNVRELEGALNRVIANANFTGRAITIDFVREALRDLLALQEKLVTIDNIQKTVAEYYKIKVADLLSKRRSRSVARPRQMAMALAKELTNHSLPEIGDAFGGRDHTTVLHACRKIEQLREESHDIKEDFSNLIRTLSS | 0.308 ± 0.22 | < 0.0122
7 | dnaA I59Q (protein) MSLSLWQQCLARLQDELPATEFSMWIRPLQAELSDNTLALYAPNRFVLDWVRDKYLNNQNGLLTSFCGADAPQLRFEVGTKPVTQTPQAAVTSNVAAPAQVAQTQPQRAAPSTRSGWDNVPAPAEPTYRSNVNVKHTFDNFVEGKSNQLARAAARQVADNPGGAYNPLFLYGGTGLGKTHLLHAVGNGIMARKPNAKVVYMHSERFVQDMVKALQNNAIEEFKRYYRSVDALLIDDIQFFANKERSQEEFFHTFNALLEGNQQIILTSDRYPKEINGVEDRLKSRFGWGLTVAIEPPELETRVAILMKKADENDIRLPGEVAFFIAKRLRSNVRELEGALNRVIANANFTGRAITIDFVREALRDLLALQEKLVTIDNIQKTVAEYYKIKVADLLSKRRSRSVARPRQMAMALAKELTNHSLPEIGDAFGGRDHTTVLHACRKIEQLREESHDIKEDFSNLIRTLSS | 0.239 ± 0.1 | < 0.0114
8 | dnaA L48Q (protein) MSLSLWQQCLARLQDELPATEFSMWIRPLQAELSDNTLALYAPNRFVQDWVRDKYLNNINGLLTSFCGADAPQLRFEVGTKPVTQTPQAAVTSNVAAPAQVAQTQPQRAAPSTRSGWDNVPAPAEPTYRSNVNVKHTFDNFVEGKSNQLARAAARQVADNPGGAYNPLFLYGGTGLGKTHLLHAVGNGIMARKPNAKVVYMHSERFVQDMVKALQNNAIEEFKRYYRSVDALLIDDIQFFANKERSQEEFFHTFNALLEGNQQIILTSDRYPKEINGVEDRLKSRFGWGLTVAIEPPELETRVAILMKKADENDIRLPGEVAFFIAKRLRSNVRELEGALNRVIANANFTGRAITIDFVREALRDLLALQEKLVTIDNIQKTVAEYYKIKVADLLSKRRSRSVARPRQMAMALAKELTNHSLPEIGDAFGGRDHTTVLHACRKIEQLREESHDIKEDFSNLIRTLSS | 0.541 ± 0.034 | 0.00747 ± 0.0056
9 | dnaA L48A (protein) MSLSLWQQCLARLQDELPATEFSMWIRPLQAELSDNTLALYAPNRFVADWVRDKYLNNINGLLTSFCGADAPQLRFEVGTKPVTQTPQAAVTSNVAAPAQVAQTQPQRAAPSTRSGWDNVPAPAEPTYRSNVNVKHTFDNFVEGKSNQLARAAARQVADNPGGAYNPLFLYGGTGLGKTHLLHAVGNGIMARKPNAKVVYMHSERFVQDMVKALQNNAIEEFKRYYRSVDALLIDDIQFFANKERSQEEFFHTFNALLEGNQQIILTSDRYPKEINGVEDRLKSRFGWGLTVAIEPPELETRVAILMKKADENDIRLPGEVAFFIAKRLRSNVRELEGALNRVIANANFTGRAITIDFVREALRDLLALQEKLVTIDNIQKTVAEYYKIKVADLLSKRRSRSVARPRQMAMALAKELTNHSLPEIGDAFGGRDHTTVLHACRKIEQLREESHDIKEDFSNLIRTLSS | 0.232 ± 0.019 | 0.00502 ± 0.0033
10 | dnaA L48W (protein) MSLSLWQQCLARLQDELPATEFSMWIRPLQAELSDNTLALYAPNRFVWDWVRDKYLNNINGLLTSFCGADAPQLRFEVGTKPVTQTPQAAVTSNVAAPAQVAQTQPQRAAPSTRSGWDNVPAPAEPTYRSNVNVKHTFDNFVEGKSNQLARAAARQVADNPGGAYNPLFLYGGTGLGKTHLLHAVGNGIMARKPNAKVVYMHSERFVQDMVKALQNNAIEEFKRYYRSVDALLIDDIQFFANKERSQEEFFHTFNALLEGNQQIILTSDRYPKEINGVEDRLKSRFGWGLTVAIEPPELETRVAILMKKADENDIRLPGEVAFFIAKRLRSNVRELEGALNRVIANANFTGRAITIDFVREALRDLLALQEKLVTIDNIQKTVAEYYKIKVADLLSKRRSRSVARPRQMAMALAKELTNHSLPEIGDAFGGRDHTTVLHACRKIEQLREESHDIKEDFSNLIRTLSS | 0.349 ± 0.014 | 0.0083 ± 0.00044
11 | dnaA I59P (protein) MSLSLWQQCLARLQDELPATEFSMWIRPLQAELSDNTLALYAPNRFVLDWVRDKYLNNPNGLLTSFCGADAPQLRFEVGTKPVTQTPQAAVTSNVAAPAQVAQTQPQRAAPSTRSGWDNVPAPAEPTYRSNVNVKHTFDNFVEGKSNQLARAAARQVADNPGGAYNPLFLYGGTGLGKTHLLHAVGNGIMARKPNAKVVYMHSERFVQDMVKALQNNAIEEFKRYYRSVDALLIDDIQFFANKERSQEEFFHTFNALLEGNQQIILTSDRYPKEINGVEDRLKSRFGWGLTVAIEPPELETRVAILMKKADENDIRLPGEVAFFIAKRLRSNVRELEGALNRVIANANFTGRAITIDFVREALRDLLALQEKLVTIDNIQKTVAEYYKIKVADLLSKRRSRSVARPRQMAMALAKELTNHSLPEIGDAFGGRDHTTVLHACRKIEQLREESHDIKEDFSNLIRTLSS | 0.39 ± 0.3 | < 0.0122
